Screen size: about 150,000 compounds; about 540 (0.36%) showed an effect of 50% or more. This is one part of the list.

This experiment has as its system Plasmodium falciparum. In words: Primary screen in NF54 nanoGlo assay, in single point, at 2uM, 72h; a lower Z score goes with more inhibition. Format: functional, Erythrocyte. The conditions noted are these: timepoint 72 hour.
As usually defined, the % Inhibition is the drop in the measured response relative to a control, in per cent. For `NCCn1nc(-c2ccc(F)cc2)n(C2CC2)c1=O`, the “% Inhibition” value is given as -1% and the Z score was 0.1.

In the case of `CCN(CCS(=O)(=O)c1ccc(C)cc1)C(=O)c1cc(C(C)C)on1`, the “% Inhibition” value is reported as 2% and the Z score is listed as -0.31.

As for `CC(C)c1ccc(-n2nc(N3CCN(C(=O)COc4ccc(F)cc4)CC3)ccc2=O)cc1`, the “% Inhibition” value came out at 8% and the Z score was -0.88.

`Cc1cc(C)nc(-c2nn(C(=O)c3ccccc3)c(=S)o2)n1`: the “% Inhibition” value was -35% and the Z score turned out to be 4.12.

In the case of `CCCNc1ncc(CN2CCO[C@H](C(N)=O)C2)cn1`, the “% Inhibition” value is recorded as -3% and the Z score is 0.36.

On to `Cc1ccc(S(=O)(=O)N2CCC([C@H](NC(=O)c3ccccc3)C(=O)N3CCCC3)CC2)cc1`, for which the “% Inhibition” value was -14% and the Z score came to 1.34.

As for `COCCN1CC2(CCC1=O)CCN(C(=O)c1c(Cl)cnn1C)CC2`, the “% Inhibition” value is on record as -7% and the Z score worked out at 0.87.

Regarding `CNC(=O)[C@H](CC(C)C)NC(=O)c1cc(C)n(Cc2ccco2)c1C`, the “% Inhibition” value is on record as -10% and the Z score was determined as 1.79.

Take `CCc1nc2ncc(-c3ccnc(N4CCCC4)n3)c(C)n2n1`: the “% Inhibition” value is reported as -4% and the Z score amounted to 0.68.

Take `O=S(=O)(NC1CCN(Cc2ccc(F)c(F)c2)CC1)c1ccc2ccccc2c1`: the “% Inhibition” value is on record as -7% and the Z score was determined as 1.21.

As for `O=C1CN(Cc2cnn(-c3ccccc3)n2)CCN1`, the “% Inhibition” value is 6% and the Z score is on record as -0.87.

With `CC(C)(C)OC(=O)N1CCNc2ccccc21`, the “% Inhibition” value is listed as -10% and the Z score was 1.56.

On to `Fc1cc2c(c(CN3CCC[C@H](c4nc5ccccc5s4)C3)c1)OCOC2`, for which the “% Inhibition” value is given as -3% and the Z score is 0.52.

For the compound `COC[C@H](C)NC(=O)CS(=O)(=O)c1ccccc1F`, the “% Inhibition” value is given as -8% and the Z score amounted to 1.11.

For `O=S(=O)(c1cccnc1)N1CC[C@H](n2ccnn2)C1`, the “% Inhibition” value was -12% and the Z score is reported as 2.07.

Regarding `Cc1cc(S(=O)(=O)NCc2ccc(N3CCOCC3)cc2)ccc1N1CCCC1=O`, the “% Inhibition” value is on record as -30% and the Z score is recorded as 2.65.

As for `CC(C)n1ccnc1-c1nccn1CCc1cccs1`, the “% Inhibition” value is on record as -9% and the Z score was found to be 0.88.

`O=C(Nc1ccc(C(F)(F)F)cc1)c1cc2cc(NC(=O)C3CCC3)ccc2n1Cc1cccc(F)c1`: the “% Inhibition” value was found to be 2% and the Z score is given as -0.25.

In the case of `COCC(=O)Nc1cc(C(=O)N(C)C(C2CC2)C2CC2)c2c(c1)nc(-c1ccncc1)n2C`, the “% Inhibition” value is listed as -4% and the Z score is on record as 0.82.

As to `C=CCNC(=O)CN(C)[C@@H](C)c1cc(-c2ccccc2)[nH]n1`, the “% Inhibition” value is given as -3% and the Z score was determined as 0.25.

In the case of `Cc1oc(-c2ccccc2)nc1CN1[C@H](C)CC[C@H](C(=O)O)[C@@H]1C`, the “% Inhibition” value is -8% and the Z score is on record as 0.77.

In the case of `Cc1cc(S(C)(=O)=O)cc(C(=O)NCc2cccc(CO)n2)c1C`, the “% Inhibition” value is reported as -12% and the Z score is recorded as 1.54.

In the case of `CCOC(=O)N1CCN(C(=O)C2C3C(=O)N(c4ccccc4)C[C@]34C=C[C@H]2O4)CC1` (some centres undefined), the “% Inhibition” value is -12% and the Z score amounted to 1.56.

As for `O=C(Cn1ccnc1)NC(=O)NC1CCCC1`, the “% Inhibition” value is given as -5% and the Z score was 0.92.

Take `CCCCc1nc(-c2nccn2[C@@H](C)Cn2cccn2)c[nH]1`: the “% Inhibition” value was -12% and the Z score is 1.35.

Turning to `O=C(CCc1nc2ccccc2s1)N1CC(F)(F)C[C@H]1c1nncn1CC1CC1`, the “% Inhibition” value is on record as -5% and the Z score is given as 0.62.

`CC(C)N1CCC(N2CCC[C@H](C(=O)N(C)Cc3ccccc3)C2)CC1`: the “% Inhibition” value is on record as 11% and the Z score was -2.2.

For the compound `COC(=O)C(c1cccc(O)c1)N(C)CCOC1CCCCO1` (centres undefined), the “% Inhibition” value was -4% and the Z score is given as 0.87.

In the case of `c1ccc2oc(CN3CCC(c4nnc5n4CCCCC5)CC3)cc2c1`, the “% Inhibition” value was -16% and the Z score amounted to 2.23.

As for `C[C@@H](c1ccccc1)n1cc(NC(=O)c2cc(=O)[nH]c(C3CC3)n2)cn1`, the “% Inhibition” value is recorded as 2% and the Z score is -0.31.

As for `C[C@H]1Cc2ccccc2N1Cc1cnc(-c2ccccc2)s1`, the “% Inhibition” value is -5% and the Z score was 0.44.

As for `Cc1cc(C(=O)N(Cc2ccccn2)c2ccc(F)cc2)on1`, the “% Inhibition” value was -5% and the Z score came to 0.62.

As for `CC[C@@H]1OC2(CCN(C(=O)c3[nH]c4ccccc4c3OC)CC2)NC1=O`, the “% Inhibition” value is 2% and the Z score is -0.24.

For the compound `CCO[C@H]1COC[C@@H]1NC(=O)N(C)Cc1cnc(-c2ccccc2)s1`, the “% Inhibition” value is listed as -9% and the Z score is recorded as 1.47.

`CC(C)C(=O)N(Cc1cc(NC(=O)C2CCC2)ccc1N(C)C)[C@@H](C)C(C)C`: the “% Inhibition” value was -2% and the Z score is listed as 0.23.

Turning to `O=C(Nc1ccc(C(=O)N2CCCCC2)c(Cl)c1)c1ccccn1`, the “% Inhibition” value was -8% and the Z score worked out at 1.

As for `CC(C)(CC(=O)N1CCO[C@H](C(F)F)C1)Cc1ccc(Cl)cc1`, the “% Inhibition” value was 4% and the Z score is -0.73.

For the compound `CC(=O)N1CCN(C(=O)C[C@@H]2CCN3C[C@@H]2/C=C/COc2ccc(N(C)CCc4ccccn4)cc2CNCC3=O)CC1`, the “% Inhibition” value is on record as -13% and the Z score was found to be 1.64.

With `CC[C@H](C)Cc1nc(-c2cnc(N)s2)n(CC)n1`, the “% Inhibition” value was -10% and the Z score is given as 1.4.

As for `Cc1c(NC(=O)N2CCC([C@H](C)O)CC2)cccc1OC1CCCC1`, the “% Inhibition” value is recorded as -4% and the Z score is 0.81.

Regarding `COc1ccc(CCNc2nc(-c3ccccc3OC)c3c(N)n(-c4ccccc4)nc3n2)cc1`, the “% Inhibition” value is listed as -4% and the Z score came to 0.4.

On to `Cc1ccc(Nc2[nH]nnc2C(=O)N[C@H]2CCc3ccccc32)cc1C`, for which the “% Inhibition” value was determined as 33% and the Z score is on record as -0.85.

These data come from ChEMBL document CHEMBL4888484, “Replenishing the malaria drug discovery pipeline: Screening and hit evaluation of the MMV Hit Generation Library 1 (HGL1) against asexual blood stage Plasmodium falciparum ,using a nano luciferase reporter read-out” (2022).
